In PubChem BioAssay AID1030 (National Center for Advancing Translational Sciences (NCATS), 2008):
In all, about 220,000 compounds went through this assay and about 16,000 (7.3%) were called active. This list was built around the results that the source calls inconclusive (neither active nor inactive); the mix of calls is not that of the screen. The call rests on the fitted dose curve; in most records, active means well fitted inhibition curve with a large enough effect (not every such curve was filed as active); inconclusive means small, poorly fitted or top-dose-only effect, or another doubt; inactive means no such curve, though single readings can be large or run the other way. Potencies of inconclusive entries are left out as doubtful fits.

Target: Aldehyde dehydrogenase 1A1 (Homo sapiens) (UniProt P00352)
Assay: qHTS Assay for Inhibitors of Aldehyde Dehydrogenase 1 (ALDH1A1);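 on activity, negative = inhibition: plate controls were no enzyme wells and a reference inhibitor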
Details: Purified ALDH1A1, NADH fluorescence, propionaldehyde substrate; series mostly up to 75.3 µM; activity, negative = inhibition: at the top concentration
Potency means the concentration at half of the fitted maximal effect; tags describe the fitted curve by direction and shape.

UniProt P00352, sequence (P00352 whole entry, looked up): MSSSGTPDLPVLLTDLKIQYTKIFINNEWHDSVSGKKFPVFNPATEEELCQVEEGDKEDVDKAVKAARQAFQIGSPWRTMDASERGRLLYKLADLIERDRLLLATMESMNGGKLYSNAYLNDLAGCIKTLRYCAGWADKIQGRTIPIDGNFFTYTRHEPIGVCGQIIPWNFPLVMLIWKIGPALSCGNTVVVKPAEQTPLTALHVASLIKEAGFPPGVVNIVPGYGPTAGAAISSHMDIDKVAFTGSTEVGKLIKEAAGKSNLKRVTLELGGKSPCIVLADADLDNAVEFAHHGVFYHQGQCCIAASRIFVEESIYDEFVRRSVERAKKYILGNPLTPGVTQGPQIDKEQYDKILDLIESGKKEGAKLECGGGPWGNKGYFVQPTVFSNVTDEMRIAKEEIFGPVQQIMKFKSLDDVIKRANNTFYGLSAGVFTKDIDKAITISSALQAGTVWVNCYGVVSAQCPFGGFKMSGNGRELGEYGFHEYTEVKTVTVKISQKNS

SMILES | activity, negative = inhibition | Potency
COc1ccccc1NS(=O)(=O)c1ccc(NC(=O)c2nc3nc(C)cc(C(F)F)n3n2)cc1 | inactive: 9.58% | 
Cc1csc(=Nc2ccccc2)n1Cc1ccco1 |  | active: 15 µM
Cc1c(NC(=O)CN2C(=O)c3cccc4cccc2c34)c(=O)n(-c2ccccc2)n1C |  | inconclusive [inhibitor, single point]
Cn1c(Cl)nc2c1c(=O)n(Cc1cccc(Br)c1)c(=O)n2C |  | inconclusive [inhibitor, single point]
CCn1c(SCC(=O)NCCOC)nc2sc3c(c2c1=O)CCCC3 |  | inconclusive [inhibitor, single point]
O=C(CSc1ccc(-c2ccccc2)nn1)N1CCCCC1 | inactive: -2.6% | 
CC1CCC(=NNC(=O)Cc2cccn2C)CC1 (stereo not given) |  | inconclusive [inhibitor, single point]
COc1ccccc1N/C=C1/Sc2cc(Cl)ccc2NC1=O |  | inconclusive [inhibitor, single point]
O=[N+]([O-])c1ccc(-c2c(O)c3ccccc3c3nc4ccccc4nc23)cc1 | inactive: -0.702% | 
CC(=O)OCC(=O)[C@@]1(O)CCC2C3CC(C)C4=CC(=O)C=CC4(C)C3C(O)CC21C (stereo not given in full) | inactive: -15.7% | 
Cc1c(N=C2SCC(=O)N2/N=C/c2ccccc2Cl)c(=O)n(-c2ccccc2)n1C |  | inconclusive [inhibitor, single point]
COc1ccc2c([N+](=O)[O-])c(Cl)[nH]c2c1 |  | inconclusive [inhibitor, single point]
Cc1ccc(-n2c(CNc3ccc(F)cc3)nnc2SCC(=O)N2CCCC2)cc1 |  | inconclusive [inhibitor, single point]
COc1ccc(N(CC(=O)Nc2ccc(S(=O)(=O)N3CCOCC3)cc2)S(=O)(=O)c2ccc(F)cc2)cc1 |  | inconclusive [inhibitor, partial curve]
CCCCC(CC)CN1CN(CC(CC)CCCC)CC(C)(N)C1 (stereo not given) | inactive: 0.782% | 
O=c1[nH]c2cc3c(cc2cc1CN(CCc1ccccc1)Cc1nnnn1CC1CCCO1)OCO3 (stereo not given) |  | inconclusive [inhibitor, partial curve]
COc1ccc(NC(=O)c2c(Cl)n(C)c3ccccc23)cc1 | inactive: 4.61% | 
COc1ccc(NC(=S)Nc2ccccc2C(F)(F)F)cc1 |  | inconclusive [inhibitor, single point]
COc1ccc(-n2ncc3c(N4CCCc5ccccc54)ncnc32)cc1 |  | inconclusive [inhibitor, single point]
Cc1cc2nc(-c3ccc(SCC(=O)NC(C)C)nc3)[nH]c2cc1C |  | inconclusive [inhibitor, partial curve]
O=C(NCCc1ccccc1)C1CC(c2ccccc2O)=NO1 (stereo not given) |  | inconclusive [inhibitor, single point]
COc1ccc(-c2csc(NC(=O)CCCc3cccs3)n2)cc1 | inactive: -6.08% | 
O=C(NC1CCCCC1)C(Cc1ccccc1)NS(=O)(=O)c1cccs1 (stereo not given) |  | inconclusive [inhibitor, partial curve]
COCCNC(=O)CN1CCC(NC(=O)c2ccco2)CC1 |  | inconclusive [inhibitor, partial curve]

SMILES | activity, negative = inhibition | Potency
c1ccc(N2CCN(C3CCSC3)CC2)cc1 (stereo not given) |  | active: 17.8 µM
O=C(CSC1=Nc2ccccc2C2=NC(CC(=O)N3CCN(c4ccccc4)CC3)C(=O)N12)NCC1CCCO1 (stereo not given) |  | inconclusive [inhibitor, single point]
O=C1/C(=N/n2cnnc2)c2ccccc2N1Cc1ccccc1 |  | active: 0.0891 µM
CCCCOC(=O)Nc1ccccc1C(=O)N1CCCC1 |  | inconclusive [inhibitor, single point]
Cc1cccc2cc(CN(CCCN(C)C)C(=S)NCCc3ccccc3)c(=O)[nH]c12 | inactive: 6.22% | 
CCCCN(CCCC)CC(O)COc1ccccc1C(=O)Nc1ccccc1 (stereo not given) | inactive: -3.17% | 
CC(C)C[C@@H](CC(=O)N[C@H](CC(=O)N[C@@H]1CCNC[C@H]1C(=O)N[C@H](CC(=O)N[C@@H](CCC(=O)O)CC(=O)O)Cc1c[nH]c2ccccc12)C(C)C)NC(=O)[C@@H]1CNCC[C@H]1N |  | inconclusive [inhibitor, single point]
N/C(=N/OC(=O)c1cccc([N+](=O)[O-])c1)c1cccc([N+](=O)[O-])c1 | inactive: 9.44% | 
Cc1ccc2nsnc2c1NC(=O)Cc1ccc(Cl)cc1 |  | inconclusive [inhibitor, single point]
COCCn1c(SCC(=O)Nc2ccc(Cl)c(S(=O)(=O)N(C)C)c2)nc2ccccc21 |  | active: 31.6 µM
N#CC1=C(N)Oc2n[nH]c(-c3ccncc3)c2C1c1ccsc1 (stereo not given) | inactive: -19.9% | 
CCOC(=O)c1sc2c(c1C)c(=O)c(C(=O)OCC)cn2CC |  | inconclusive [inhibitor, partial curve]
C=CCN=C1SCC(=O)N1S(=O)(=O)c1ccccc1 |  | inconclusive [inhibitor, partial curve]
CCn1c(C)[n+](CC)c2ccc(S(=O)(=O)NC)cc21 | inactive: 3.33% | 
Cc1cc(C)cc(N2C(=O)CC(Sc3nnnn3-c3ccccc3)C2=O)c1 (stereo not given) |  | active: 14.1 µM
Cc1cc(C)c(-n2c(SCCS(=O)(=O)c3ccc(F)cc3)n[nH]c2=O)c(C)c1 |  | active: 14.1 µM
O=C(Nc1ccccc1)OC[C@H](CN1CCCCC1)OC(=O)Nc1ccccc1 | inactive: -11.9% [at 20.9 µM] | 
COC(=O)Sc1nc(N2CCOCC2)c2c(c1C#N)CC(C)(C)OC2 |  | active: 14.1 µM
Cc1ccc(OCC(=O)N2CCc3ccccc32)c([N+](=O)[O-])n1 |  | inconclusive [inhibitor, single point]
CCCn1c(SCC(=O)N2CCCCC2)nnc1-c1ccco1 |  | inconclusive [inhibitor, single point]
O=C(NCC(=O)N(c1cccnc1)C(C(=O)NC1CCCC1)c1cccs1)c1ccco1 (stereo not given) | inactive: -5.97% | 
Nc1cccc2c1C(=O)N(C(=O)c1ccc(S(=O)(=O)N3CCCCCC3)cc1)C2=O |  | inconclusive [inhibitor, partial curve]
CCOC(=O)/C(C#N)=C/c1ccc(OCC(=O)Nc2ccc(OC)cc2)c(OC)c1 |  | active: 5.01 µM
COc1ccc(NC(=O)CN2C(=O)c3cccc4cccc2c34)cc1OC |  | inconclusive [inhibitor, single point]

SMILES | activity, negative = inhibition | Potency
C=CCc1c(C)nc(C)nc1N/N=C/c1ccc([N+](=O)[O-])cc1 |  | inconclusive [inhibitor, single point]
O=S(=O)(Nc1cc(S(=O)(=O)N2CCOCC2)ccc1N1CCCC1)c1cccs1 |  | active: 0.398 µM
CC1CCCC(NS(=O)(=O)c2ccc3c(c2)OCCO3)C1C (stereo not given) |  | active: 14.1 µM
O=C(COc1ncnc2cc([N+](=O)[O-])ccc12)NC1CCCCC1 |  | inconclusive [inhibitor, single point]
O=c1cccc2n1Cc1cc3ccccc3nc1-2 |  | inconclusive [inhibitor, partial curve]
O=C(CSc1n[nH]c(-c2ccccc2)n1)c1ccc(O)c(O)c1 | inactive: -2.08% | 
COc1ccc(C2=NN(C(=O)CSc3nnc(-c4ccccc4F)o3)C(c3ccco3)C2)cc1 (stereo not given) |  | inconclusive [inhibitor, single point]
COc1ccc(-c2nc3cc([N+](=O)[O-])ccc3o2)cc1 |  | inconclusive [inhibitor, partial curve]
COc1ccc(N(CC(=O)N2CCCC(C)C2)S(=O)(=O)c2c(C)nn(C)c2C)cc1 (stereo not given) |  | inconclusive [inhibitor, partial curve]
O=C(Nc1cccc(F)c1)N1CC2(CCN(C(=O)c3ccco3)CC2)C1 |  | active: 11.2 µM
CC1(C)CC(=O)C2=C(C1)N(Cc1ccco1)C(=O)C2(NC(=O)C1CCCCC1)C(F)(F)F (stereo not given) | inactive: -1.58% | 
Cc1ccc(NC(=O)c2cccc(OCc3c(C)noc3C)c2)cc1S(=O)(=O)Nc1ccccc1Cl | inactive: -5.27% | 
O=C(O)CCC(=O)N1N=C(c2c(-c3ccccc3)c3cc(Cl)ccc3[nH]c2=O)CC1c1cccs1 (stereo not given) |  | inconclusive [inhibitor, single point]
CN1CCN(C(=O)C2=C[C@@H](C3CCCCC3)C[C@@H](OCc3ccc(CO)cc3)O2)CC1 |  | inconclusive [inhibitor, partial curve]
CCOc1ccc(N2C(=O)CC(N3CCN(C(=O)CN4CCCC4)CC3)C2=O)cc1 (stereo not given) |  | active: 15.8 µM
CC(C)c1ccc(NC(=O)CNC(=O)Cn2cnc3ccccc3c2=O)cc1 |  | inconclusive [inhibitor, single point]
CC1CCCCN1CCNC(=O)c1cnn2ccccc12 (stereo not given) |  | inconclusive [inhibitor, single point]
COc1cc(NC(=O)CN2CCN(c3ccccc3)CC2)c(C)cc1[N+](=O)[O-] |  | inconclusive [inhibitor, single point]
CCN=C(Nc1cccc(F)c1)SC1CC(=O)N(c2ccc(OC)cc2)C1=O (stereo not given) |  | inconclusive [inhibitor, partial curve, poor fit]
COc1cc(/C=C/C(=O)O)cc(S(=O)(=O)Nc2ccc3nc(SC)sc3c2)c1OC | inactive: 11% | 
O=C1CC(N2CCN(c3cccc(C(F)(F)F)c3)CC2)C(=O)N1c1ccccc1 (stereo not given) | inactive: -10.1% | 
CCOC(=O)CSC(CC)C(=O)Nc1nnc(C(C)C)s1 (stereo not given) |  | inconclusive [inhibitor, partial curve]
